PubChem BioAssay AID445 (National Center for Advancing Translational Sciences (NCATS), 2006)
The whole screen tested about 110,000 compounds, of which about 40 (0.04%) were called active. This list was built around the results that the source calls inconclusive (neither active nor inactive); the mix of calls is not that of the screen. Calls follow the shape of the dose curve; as a rule, active = well fitted curve in the direction sought with a large enough effect in the signal ratio (not every such curve was filed as active); inconclusive = small, poorly fitted or top-dose-only effect, or a change in a side signal; inactive = flat fitted curve, though single readings scatter; the % refers to the signal ratio. Potencies of inconclusive entries are doubtful fits and often do not repeat.

test: IkB Signaling; details: ABC-DLBCL IkBa-CBG/CBR dual luciferase ratio (green luciferase fused to IkBa over red control in OCI-Ly3 lymphoma cells), 4 h; IkBa stabilization activation: at 57.1 µM (top of the series), scaled: untreated 0%, proteasome inhibitor 100% unless noted;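 as to IkBa stabilization activation: 0% = basal untreated cells and 100% = reference inhibitor full response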
How it was run: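 In this assay, an IκBα–CBG68 fusion accumulates when IKK-driven degradation is blocked; native CBR normalizes for cell number. OCI-Ly3 cells were treated 4 h with compound and doxycycline, then green and red light read after Chroma-Glo addition.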
Potency is read from the fitted curve at half-maximal effect.

Which IkBa stabilization activation does the source give for COc1ccc(CNS(=O)(=O)c2ccc3c(c2)NC(=O)C(C)C(=O)N3)cc1 (configuration not stated) here?
The IkBa stabilization activation was inconclusive: 2.99% [signal inhibitor].

Which IkBa stabilization activation does the source give for Cc1ccc(C)c(S(=O)(=O)Nc2ccc3c(c2)CCCN3C(=O)c2cccs2)c1 here?
Its IkBa stabilization activation is inconclusive: 6.32% [signal inhibitor].

With Cc1ccc(C)c(Nc2ncnc3c2cnn3-c2ccc(F)cc2)c1 as the compound, how does the IkBa stabilization activation read?
Its IkBa stabilization activation is inconclusive: -2.52% [signal inhibitor].

For O=C1CC(c2cccs2)CC2=C1C(c1ccccc1)n1ncnc1N2 (configuration not stated), which IkBa stabilization activation is on record?
The IkBa stabilization activation was “inactive”.

Which IkBa stabilization activation does the source give for O=C(NCCc1ccccc1)c1cc(-c2cccc(Cl)c2)on1 here?
Its IkBa stabilization activation is “inactive”.

With COc1cc(NC(=O)Cn2c(=O)n(Cc3ccccc3Cl)c(=O)c3cc(OC)c(OC)cc32)cc(OC)c1 as the compound, how does the IkBa stabilization activation read?
The IkBa stabilization activation was “inactive”.

For CCCN(C(=O)c1cc2c(=O)n(CC)c3ccccc3c2s1)c1ccccc1F, which IkBa stabilization activation is on record?
The IkBa stabilization activation was inconclusive: -0.181% [signal inhibitor].

With CCCCNC(=O)c1cc(-c2ccc(F)cc2)on1 as the compound, how does the Potency read?
The Potency was inconclusive: 25.1 µM [signal inhibitor, partial curve].

For O=C(c1cccc([N+](=O)[O-])c1)N1c2nc(-c3ccco3)nn2C2(CCCCC2)[C@@H]2CCCC[C@@H]21, which IkBa stabilization activation is on record?
Its IkBa stabilization activation is inconclusive: -0.191% [signal inhibitor].

For COc1cccc(CNC(=O)C2CCCN(S(=O)(=O)c3ccc4c(ccn4C)c3)C2)c1OC (configuration not stated), which IkBa stabilization activation is on record?
Its IkBa stabilization activation is inconclusive: 1.73% [signal inhibitor].

Which IkBa stabilization activation does the source give for Cc1cc(C(=O)Nc2cccc(C(F)(F)F)c2)c2c(C)nn(-c3cccc(F)c3)c2n1 here?
The IkBa stabilization activation was inconclusive: -1.9% [signal inhibitor].

Which IkBa stabilization activation does the source give for CC(=O)Nc1ccc(NC(=O)CC(C)n2ccc(C)n2)cc1 (configuration not stated) here?
Its IkBa stabilization activation is inconclusive: -1.33% [signal inhibitor].

For Oc1ccc(O)c2c(O)cccc12, which Potency is on record?
The Potency was inconclusive: 39.8 µM [rising, partial curve].

For CCOCCOCC, which IkBa stabilization activation is on record?
Its IkBa stabilization activation is “inactive”.

For Cc1cc(C)c(-c2csc(-c3cc4ccccc4oc3=O)n2)cc1C, which IkBa stabilization activation is on record?
Its IkBa stabilization activation is “inactive”.

Which IkBa stabilization activation does the source give for CCCN1CCN(CCNC(=O)Nc2cc(Cl)c(OC)cc2OC)CC1 here?
The IkBa stabilization activation was “inactive”.

For Cc1cccc(N2C(=O)C(CC(=O)Nc3ccccc3)N(C3CCCCC3)C2=O)c1 (configuration not stated), which IkBa stabilization activation is on record?
Its IkBa stabilization activation is inconclusive: 2.87% [signal inhibitor].

With CCCN=Cc1sc2ccc(OCC)cc2c1O as the compound, how does the IkBa stabilization activation read?
The IkBa stabilization activation was “inactive”.

For CCOC(=O)c1c(C)[nH]c(C)c1S(=O)(=O)N(C)CC(=O)N1CCN(c2cccc(C)c2C)CC1, which IkBa stabilization activation is on record?
Its IkBa stabilization activation is inconclusive: 2.58% [signal inhibitor].

With O=C1c2ccccc2C(=O)N1CCCCSc1nnnn1-c1ccccc1 as the compound, how does the IkBa stabilization activation read?
The IkBa stabilization activation was inconclusive: 2.52% [signal inhibitor].

With CCOC(=O)c1c(C)oc2nc(C)nc(NCCCN3CCN(c4ccccc4OC)CC3)c12 as the compound, how does the IkBa stabilization activation read?
The IkBa stabilization activation was inconclusive: -0.36% [signal inhibitor].

Which IkBa stabilization activation does the source give for CCOc1ccc(C(=O)Nc2c(C)nc(Nc3ccccc3)nc2Nc2ccccc2)cc1OCC here?
Its IkBa stabilization activation is inconclusive: 1.13% [signal inhibitor].

For Cc1cc(NC(=O)CCCSc2nc(-c3ccco3)cc(C(F)(F)F)n2)no1, which IkBa stabilization activation is on record?
Its IkBa stabilization activation is “inactive”.

For COc1ccc(CCNc2nc(-c3ccccc3OC)cc(C(F)(F)F)n2)cc1OC, which IkBa stabilization activation is on record?
The IkBa stabilization activation was inconclusive: 11.3% [signal inhibitor].

For CCC(c1nnnn1C1CCCC1)N1CCN(c2ccccc2F)CC1 (configuration not stated), which IkBa stabilization activation is on record?
Its IkBa stabilization activation is “inactive”.

With CCn1c(SCc2ccc(C(=O)OC)o2)nc2sc3c(c2c1=O)CCCC3 as the compound, how does the IkBa stabilization activation read?
The IkBa stabilization activation was “inactive”.

With CCOc1ccc(CNC(=O)C(C)n2ncn3cccc3c2=O)cc1 (configuration not stated) as the compound, how does the IkBa stabilization activation read?
The IkBa stabilization activation was “inactive”.

Which IkBa stabilization activation does the source give for COc1ncc2nc(-c3ccccc3)c(=O)n(-c3ccccc3)c2n1 here?
Its IkBa stabilization activation is inactive: -0.871% [at 11.4 µM, scaled: untreated 0%, proteasome inhibitor 100%].

For O=C(Nc1nnc(N2CCCC2)s1)Nc1cc(F)ccc1F, which IkBa stabilization activation is on record?
Its IkBa stabilization activation is “inactive”.

Which IkBa stabilization activation does the source give for COc1ccc(C2C(C(=O)N3CCN(c4ccccc4F)CC3)c3ccccc3C(=O)N2C)cc1 (configuration not stated) here?
The IkBa stabilization activation was inconclusive: 0.643% [signal inhibitor].

Which IkBa stabilization activation does the source give for O=C(NCCc1ccccc1)c1c2c(nc3ccccc13)C(=O)N(C1CCCCC1)C2 here?
Its IkBa stabilization activation is inconclusive: 4.62% [signal inhibitor].

For Cc1oc(-c2cccc(Cl)c2)nc1CN1CCC(C(=O)NCc2ccc(F)cc2)CC1, which IkBa stabilization activation is on record?
Its IkBa stabilization activation is inconclusive: -0.39% [signal inhibitor].

Which IkBa stabilization activation does the source give for Cc1c(Cl)cc(C(C)(C)C)c(O)c1Cc1c(C)c(Cl)cc(C(C)(C)C)c1O here?
The IkBa stabilization activation was inconclusive: 4.81% [signal inhibitor] [at 11.4 µM, scaled: untreated 0%, proteasome inhibitor 100%].

With CC(C)(C)NC[C@@H](O)COc1ccccc1C1CCCC1 as the compound, how does the IkBa stabilization activation read?
Its IkBa stabilization activation is “inactive”.

With CCCN1C(=O)c2[nH]nc(-c3ccc(F)cc3)c2C1c1ccc(O)c(OCC)c1 (configuration not stated) as the compound, how does the IkBa stabilization activation read?
Its IkBa stabilization activation is inconclusive: 3.01% [signal inhibitor].

With COc1cccc(NC(=O)Cc2ccc(NC(=O)N3CCCCc4ccccc43)cc2)c1 as the compound, how does the IkBa stabilization activation read?
Its IkBa stabilization activation is inconclusive: 4.63% [signal inhibitor].

Which IkBa stabilization activation does the source give for CCOC(=O)c1ccccc1NC(=O)c1cn(CC)c2nc(C)ccc2c1=O here?
The IkBa stabilization activation was “inactive”.

Which IkBa stabilization activation does the source give for CN(C)Cc1nc2ccccc2c(=O)n1Cc1nc(-c2cc3ccccc3o2)cs1 here?
The IkBa stabilization activation was inconclusive: -3.5% [signal inhibitor].

Which IkBa stabilization activation does the source give for Cc1cc(C(=O)Nc2sc3c(c2C#N)CCCCC3)cs1 here?
The IkBa stabilization activation was “inactive”.

Which IkBa stabilization activation does the source give for Cc1ccc(N2C(=O)CSC23C(=O)Nc2ccccc23)cc1F (configuration not stated) here?
Its IkBa stabilization activation is inconclusive: 2.01% [signal inhibitor].

Which IkBa stabilization activation does the source give for Cc1ccc2oc(C(=O)NCC(c3ccc(Cl)cc3)N3CCOCC3)c(C)c2c1 (configuration not stated) here?
Its IkBa stabilization activation is inconclusive: 1.66% [signal inhibitor].

For O=[N+]([O-])c1cc(Cl)c(Cl)c(Cl)c1Cl, which Potency is on record?
Its Potency is inconclusive: 39.8 µM [rising, partial curve].

For Cc1cc(C)nc(Nc2ccc(N3CCOCC3)cc2)n1, which IkBa stabilization activation is on record?
The IkBa stabilization activation was “inactive”.

Which IkBa stabilization activation does the source give for Cc1ccc(CNC(=O)c2cc3c(=O)n4cccc(C)c4nc3s2)cc1 here?
The IkBa stabilization activation was “inactive”.

For COc1ccccc1NC(=O)CN1C(=O)C(C)(C)c2ccccc21, which IkBa stabilization activation is on record?
Its IkBa stabilization activation is inconclusive: 2.01% [signal activator].

For Cn1c(C(=O)NC2CC2)cc2c(=O)n(C)c3ccccc3c21, which IkBa stabilization activation is on record?
Its IkBa stabilization activation is “inactive”.

For O=C(O)c1ccccc1Nc1cccc(OCc2ccc3ccccc3n2)c1, which IkBa stabilization activation is on record?
The IkBa stabilization activation was inconclusive: 0.993% [signal inhibitor].
